In PubChem BioAssay (NCI):
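Cultured in 96-well plates, cells were exposed to test compound for 48 hours across five concentrations. GI50 = concentration required for 50% inhibition of growth. TGI denotes the concentration required for complete inhibition of growth.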 Active and inactive are the calls of the source.

Tests used:
Test in all cases: DTP human tumour cell line panel, 48 h
[1] = tested on: CCRF-CEM leukemia
[2] = tested on: HOP-92 NSCLC
[3] = tested on: UACC-257 melanoma
[4] = tested on: NCI-H226 lung
[5] = tested on: NCI-H23 lung
[6] = tested on: SR leukemia

Q: `Fc1ccc(-c2ncn(C3CCNCC3)c2-c2ccnc(Oc3ccc(Cl)cc3)n2)cc1` was tested. Which GI50 [1] did it give?
A: Its GI50 is “inactive”.

Q: And the TGI [1]?
A: The TGI was 16.9 µM.

Q: And the GI50 [2]?
A: Its GI50 is “inactive”.

Q: What about the TGI [2] of the same molecule?
A: Its TGI is 9.7 µM.

Q: What about the GI50 [3] of the same molecule?
A: The GI50 was “inactive”.

Q: And the TGI [3]?
A: The TGI was 7.58 µM.

Q: What about the GI50 [4] of the same molecule?
A: The GI50 was “inactive”.

Q: And the TGI [4]?
A: The TGI was 13.6 µM.

Q: And the GI50 [5]?
A: The GI50 was “inactive”.

Q: And the TGI [5]?
A: The TGI was over 25 µM.

Q: What about the GI50 [6] of the same molecule?
A: Its GI50 is “inactive”.

Q: And the TGI [6]?
A: Its TGI is 11 µM.
